Measured values reported in the supplement of paper PMC3334620.
The full ranking holds about 33,000 sequences; the median of “E-score (-0.5 to 0.5)” is about -0.054, and the highest 2% start at about 0.35. This is one part of the list.

What follows are sequences tested against T1, Stb5 (UniProt P38699) (assay: PBM E-score (8-mer binding enrichment) (E-score (-0.5 to 0.5)); higher = stronger / more preferred TF binding; most listed sequences are background and not binding sites). Conditions: protein concentration: 200 nM; construct: GST-full length.
T1 sequence: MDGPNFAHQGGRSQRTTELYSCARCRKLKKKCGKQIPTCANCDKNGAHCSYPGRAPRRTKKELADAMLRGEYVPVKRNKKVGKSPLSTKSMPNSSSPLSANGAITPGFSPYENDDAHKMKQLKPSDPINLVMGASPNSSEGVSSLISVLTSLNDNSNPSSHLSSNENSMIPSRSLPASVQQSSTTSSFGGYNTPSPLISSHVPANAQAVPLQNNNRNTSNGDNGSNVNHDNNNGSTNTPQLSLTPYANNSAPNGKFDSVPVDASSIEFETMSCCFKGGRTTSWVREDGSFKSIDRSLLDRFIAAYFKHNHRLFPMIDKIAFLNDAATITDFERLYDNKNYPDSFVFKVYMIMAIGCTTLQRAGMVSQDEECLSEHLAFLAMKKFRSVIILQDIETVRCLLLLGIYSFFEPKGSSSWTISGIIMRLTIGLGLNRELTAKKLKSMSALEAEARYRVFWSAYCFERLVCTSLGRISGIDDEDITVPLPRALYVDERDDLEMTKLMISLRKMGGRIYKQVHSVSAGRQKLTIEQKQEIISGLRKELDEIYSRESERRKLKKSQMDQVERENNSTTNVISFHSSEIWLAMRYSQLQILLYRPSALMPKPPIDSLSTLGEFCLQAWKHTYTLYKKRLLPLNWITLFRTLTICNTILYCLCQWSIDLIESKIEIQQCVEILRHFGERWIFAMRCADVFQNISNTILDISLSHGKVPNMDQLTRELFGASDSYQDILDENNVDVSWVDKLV
In short: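 Bound GST-tagged yeast transcription factors, applied at about 100-200 nM to double-stranded universal all-10-mer Agilent arrays, were detected with fluorescent anti-GST. Scans were normalised with masliner. A modified Wilcoxon-Mann-Whitney statistic, the E-score, was assigned to each ungapped eight-base word pooled with its reverse complement by the Universal PBM Analysis Suite.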

Sequence | PBM E-score
CAGGACGG | 0.171
ACAGTGCT | -0.197
ATCTCAAT | -0.196
GGCTGGAC | -0.046
CTCCTTAA | 0.0854
AGTCACTG | -0.182
ATTTAAAC | 0.0377
ATATGTCG | 0.083
ACGAACTC | -0.0109
AATATACA | -0.0649
GGTGGTGA | -0.012
CGTGTTCA | -0.0266
TAACCTTA | -0.0347
CGGCCAAG | 0.104
GGGTAGAC | -0.113
CTAGTCAA | -0.251
ACCATGAT | -0.0792
TTGGCAAA | -0.152
TAATGGCA | -0.0515
CTCTTGCA | -0.0449
ACATCCTC | 0.0595
ACCTTGAC | -0.0345
ATCTCACC | 0.143
CGCTCGCC | 0.0794
AGTCTCCA | -0.211

Sequence | PBM E-score
CTCCGCGA | 0.247
GGTGTGTA | 0.139
GCTCAAGA | -0.194
CTGTATTC | 0.117
CCATTGCC | -0.0272
CCGATGAG | 0.208
CCGAATCC | 0.124
GCATGTCA | -0.0844
GCTTCAAC | -0.205
CGTCGAAA | 0.0937
CCCTCCGG | 0.122
GGCCGAAC | 0.123
TCGTATAA | -0.00253
CCAAAGAG | -0.1
AATTTTGG | -0.0529
AAATAACC | 0.119
GAGGTGAA | 0.0477
CCCACATC | -0.103
CAACCGTG | -0.0323
ACGAGTAC | -0.154
ATACGCCA | -0.146
CGGCGGGA | 0.347
AAGGAATA | -0.0476
CACGCCCA | -0.12
AGAGGAGG | -0.281

Sequence | PBM E-score
GGTCAACC | -0.0755
CCTCAGCC | -0.197
GAATCGTA | -0.103
AGCTTTAA | -0.123
GAGAGCAA | -0.183
AGATTACA | 0.0903
GCTAAACC | -0.0321
ACTAAGAC | -0.135
GTTCGCGA | -0.275
CTCGTCAA | -0.18
CTGTCCCA | -0.206
GAGCCGCC | 0.24
ACCGAGAC | 0.0851
AGTTATAC | 0.143
ACCGGAGC | 0.295
CGGCATCC | 0.224
AAGCAGGT | -0.209
CAACCTCG | -0.0247
CGAATACG | 0.0294
CTGTAAAC | -0.297
CGTATACC | -0.102
TAGAGGGA | -0.306
ACGCCACA | -0.101
ACCTCCCT | -0.321
CTTCCCTC | -0.226

Sequence | PBM E-score
AGTAAGTC | 0.00667
CCAATCTA | -0.0421
AATCCCGC | 0.398
GCCTGACA | -0.0672
CTATCTAC | -0.0473
TACCAACA | -0.22
TCTGTGCA | -0.195
TGGAGAAA | -0.0822
ACATCTCT | 0.00397
CTAGCTTC | -0.161
AACATTTG | -0.145
AAAACGCG | 0.0108
GGCAAAAA | 0.2
AGTCGTCA | -0.27
ACCACCTC | 0.0751
TGGCCAAA | -0.0702
CCCTACAA | -0.185
GGAGGGTA | -0.0387
CGCCAGTA | 0.00181
CAGTTTCC | -0.157
GATTCGCC | -0.0633
GATCGTAC | 0.0269
AAGGTCCG | 0.442
GTATACGA | -0.123
AATGAACA | -0.137

Sequence | PBM E-score
CATCCGGG | 0.116
TTAAACAA | -0.0423
CAAAAGGC | -0.00412
GGCACGCC | 0.00113
CATTTTCC | 0.104
CATTGATC | -0.0431
ATGTATAC | -0.0848
CGGGCCTA | 0.437
GACGAGCC | -0.237
GAACTTTA | 0.113
CGGCCACA | 0.267
ACGACCCA | -0.191
GCATGCTA | -0.103
ATGAATGG | 0.165
AGGCTCAA | -0.0651
ACGCGTAA | -0.0929
CGCAATTC | -0.00924
CAAAGCGC | 0.175
ACACGGCG | 0.2
CGGACCAG | 0.0937
ACCCGGAT | 0.145
ACCACAGG | -0.14
ATCCCGCC | 0.334
ATCCTTAG | -0.0576
ATCTCACG | -0.0419

Sequence | PBM E-score
AGATAGAT | -0.178
GGCTATAA | 0.203
GCAACAGA | -0.0274
AACCTCAT | -0.22
ACGTGCGA | -0.0649
CTCACCAA | -0.173
ATGGAATC | -0.123
GCTGGCAC | -0.112
CAGCACCC | 0.0571
ATCAAGAG | -0.215
ATTTGTCC | 0.324
ATTGGACC | 0.0306
AACCGCAA | 0.12
CCAAAGCC | 0.00656
CCGTCTAG | 0.191
ACACAGTC | -0.0536
GTCTCTAA | -0.221
ACTACATA | -0.172
CTGATGCC | 0.0203
CTAATCAC | 0.189
CTTTCTCC | -0.0508
AAGGACTG | -0.365
GCCCTAAC | 0.0652
GTTCCCGA | 0.235
CTCATGGC | -0.00167

Sequence | PBM E-score
TAGCTATA | -0.193
GGACAAAA | 0.267
CGGCATTC | 0.285
GGGGTATA | 0.26
ACATGGAC | -0.235
AGCCCACA | -0.26
ATGCACCC | 0.0568
CACTCGAC | -0.115
CTGGGAAG | -0.184
AAAGGGCC | -0.0038
TCATTTCA | -0.109
CAAATGTC | -0.0119
CTGAGAAC | -0.127
ATTGGCGC | -0.0479
ACTTAAGC | 0.134
CGGGACGA | 0.164
AAAAAGAG | -0.258
GCGAATAA | 0.00672
AGACCGAG | 0.177
AAGTCCAG | -0.133
CCAGGGCC | 0.0327
GGAATGGA | -0.121
